Measurements as given in the supplement of paper PMC12217912.
Some of the results follow. The full chains were built here from the parent and the listed change. Values near 0.05 are background.

B1: TEV protease; numbered along this chain (parent)
chain: MGESLFKGPRDYNPISSSICHLTNESDGHTTSLYGIGFGPFIITNKHLFRRNNGTLVVQSLHGVFKVKDTTTLQQHLVDGRDMIIIRMPKDFPPFPQKLKFREPQREERICLVTTNFQTKSMSSMVSDTSCTFPSGDGIFWKHWIQTKDGQCGSPLVSTRDGFIVGIHSASNFTNTNNYFTSVPKNFMELLTNQEAQQWVSGWRLNADSVLWGGHKVFMVKPEEPFQPVKEATQL

Variants of: B1
Experiment: raw area under fraction-flipped curve 0-4 h after induction (AUC4h, not background-subtracted), DNA-recorder readout of cleavage of the substrate (dimensionless); higher = more cleavage of the substrate by the protease variant
Settings: temperature: 34 °C; time window: 0-4 h after rhamnose induction
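Also: Bxb1 expression induced with 0.2% (w/v) L-rhamnose at OD600 near 0.5, cultures sampled hourly, flipped fraction per protease–substrate barcode pair counted by paired-end Illumina sequencing.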

Variant	area with substrate ENLYFES	area with substrate ENLYFHS	area with substrate ENLYFIS	area with substrate ENLYFKS	area with substrate ENLYFLS	area with substrate ENLYFNS	area with substrate ENLYFPS	area with substrate ENLYFRS	area with substrate ENLYFSS	area with substrate ENLYFTS
MGESLFKGPRDYNPISSSICHLTNESDGHTTSLYGIGFGPFIITNKHLFRRNNGTLVVQSLHGVFKVKDTTTLQQHLVDGRDMIIIRMPKDFPPFPQKLKFREPFREERICLVTTNFQTKSMSSMVSDTSCTFPSGDGIFWKHWIQTKDGQCGSPLVSTRDGFIVGIHSASNFTNTNNYFTSVPKNFMELLTNQEAQQWVSGWRLNADSVLWGGHKVFMVKPEEPFQPVKEATQL [Q105F]	0.0645	0.0488	0.0474	0.0677	0.0477	0.0393	0.0545	0.0453	0.0502	0.0885
MGESLFKGPRDYNPISSSICHLTNESDGHTTSLYGIGFGPFIITNKHLFRRNNGTLVVQSLHGVFKVKDTTTLQQHLVDGRDMIIIRMPKDFPPFPQKLKFREPQREERICSVTTNFQTKSMSSMVSDTSCTFPSGDGIFWKHWIQTKDGQCGSPLVSTRDGFIVGIHSASNFTNTNNYFTSVPKNFMELLTNQEAQQWVSGWRLNADSVLWGGHKVFMVKPEEPFQPVKEATQL [L112S]	0.0522	0.0723	0.0536	0.0546		0.0949	0.0745	0.0389	0.0623	0.0562
MGESLFKGPRDYNPISSSICHLTNESDGHTTSLYGIGFGPFIITNKHLFRRNNGTLVVQSLHGVFKVKDTTTLQQHLVDGRDMIIIRMPKDFPPFPQKLKFREPQREERICLVTTNFQTFSMSSMVSDTSCTFPSGDGIFWKHWIQTKDGQCGSPLVSTRDGFIVGIHSASNFTNTNNYFTSVPKNFMELLTNQEAQQWVSGWRLNADSVLWGGHKVFMVKPEEPFQPVKEATQL [K120F]	0.058	0.0516	0.0576		0.074	0.0602	0.0592			0.0548
MGESLFKGPRDYNPISSSICHLTNESDGHTTSLYGIGFGPFIITNKHLFRRNNGTLVVQSLHGVFKVKDTTTLQQHLVDGRDMIIIRMPKDFPPFPQKLKFREPQREERICLVTTNFQTKSMSSMVSDTSCTFPSGDGIFWKHWIQTKDGQCGSPLVSTNDGFIVGIHSASNFTNTNNYFTSVPKNFMELLTNQEAQQWVSGWRLNADSVLWGGHKVFMVKPEEPFQPVKEATQL [R160N]	0.0835		0.0563			0.0548		0.0635		
MGESLFKGPRDYNPISSSICHLTNESDGHTTSLYGIGFGPFIITNKHLFRRNNGTLVVQSLHGVFKVKDTTTLQQHLVDGRDMIIIRMPKDFPPFPQKLKFREPQREERICLVTTNFQTKSMSSMVSDTSCTFPSGDGIFWKHWIQTKDGQCGSPLVSTRDGFIVGINSASNFTNTNNYFTSVPKNFMELLTNQEAQQWVSGWRLNADSVLWGGHKVFMVKPEEPFQPVKEATQL [H168N]	0.0555		0.0536			0.0725			0.0489	
MGESLFKGPRDYNPISSSICHLTNESDGHTTSLYGIGFGPFIITNKHLFRRNNGTLVVQSLHGVFKVKDTTTLQQHLVDGRDMIIIRMPKDFPPFPQKLKFREPQREERICLVTTNFQTKSMSSMVSDTSCTFPSGDGIFWKHWIQTKDGQCGSPLVSTRDGFIVGIHSASNFTNTNNYFTSVLKNFMELLTNQEAQQWVSGWRLNADSVLWGGHKVFMVKPEEPFQPVKEATQL [P184L]	0.042	0.0567	0.0534			0.0655		0.0577	0.0552	0.0473

Same assay, conditions: temperature: 34 °C; time window: 0-4 h after rhamnose induction

Variant	area with substrate ENLYFYS	area with substrate ENLYFFS	area with substrate ENLYFGS	area with substrate ENLYFMS	area with substrate ENLYFVS	area with substrate ENLYFWS
MGESLFKGPRDYNPISSSICHLTNESDGHTTSLYGIGFGPFIITNKHLFRRNNGTLVVQSLHGVFKVKDTTTLQQHLVDGRDMIIIRMPKDFPPFPQKLKFREPFREERICLVTTNFQTKSMSSMVSDTSCTFPSGDGIFWKHWIQTKDGQCGSPLVSTRDGFIVGIHSASNFTNTNNYFTSVPKNFMELLTNQEAQQWVSGWRLNADSVLWGGHKVFMVKPEEPFQPVKEATQL [Q105F]	0.03					
MGESLFKGPRDYNPISSSICHLTNESDGHTTSLYGIGFGPFIITNKHLFRRNNGTLVVQSLHGVFKVKDTTTLQQHLVDGRDMIIIRMPKDFPPFPQKLKFREPQREERICSVTTNFQTKSMSSMVSDTSCTFPSGDGIFWKHWIQTKDGQCGSPLVSTRDGFIVGIHSASNFTNTNNYFTSVPKNFMELLTNQEAQQWVSGWRLNADSVLWGGHKVFMVKPEEPFQPVKEATQL [L112S]	0.0576	0.0703	0.0443	0.0498	0.0445	
MGESLFKGPRDYNPISSSICHLTNESDGHTTSLYGIGFGPFIITNKHLFRRNNGTLVVQSLHGVFKVKDTTTLQQHLVDGRDMIIIRMPKDFPPFPQKLKFREPQREERICLVTTNFQTFSMSSMVSDTSCTFPSGDGIFWKHWIQTKDGQCGSPLVSTRDGFIVGIHSASNFTNTNNYFTSVPKNFMELLTNQEAQQWVSGWRLNADSVLWGGHKVFMVKPEEPFQPVKEATQL [K120F]		0.0619		0.0632		0.0635
MGESLFKGPRDYNPISSSICHLTNESDGHTTSLYGIGFGPFIITNKHLFRRNNGTLVVQSLHGVFKVKDTTTLQQHLVDGRDMIIIRMPKDFPPFPQKLKFREPQREERICLVTTNFQTKSMSSMVSDTSCTFPSGDGIFWKHWIQTKDGQCGSPLVSTNDGFIVGIHSASNFTNTNNYFTSVPKNFMELLTNQEAQQWVSGWRLNADSVLWGGHKVFMVKPEEPFQPVKEATQL [R160N]	0.0504		0.0525		0.0464	0.0507
MGESLFKGPRDYNPISSSICHLTNESDGHTTSLYGIGFGPFIITNKHLFRRNNGTLVVQSLHGVFKVKDTTTLQQHLVDGRDMIIIRMPKDFPPFPQKLKFREPQREERICLVTTNFQTKSMSSMVSDTSCTFPSGDGIFWKHWIQTKDGQCGSPLVSTRDGFIVGINSASNFTNTNNYFTSVPKNFMELLTNQEAQQWVSGWRLNADSVLWGGHKVFMVKPEEPFQPVKEATQL [H168N]	0.0481			0.0643		
MGESLFKGPRDYNPISSSICHLTNESDGHTTSLYGIGFGPFIITNKHLFRRNNGTLVVQSLHGVFKVKDTTTLQQHLVDGRDMIIIRMPKDFPPFPQKLKFREPQREERICLVTTNFQTKSMSSMVSDTSCTFPSGDGIFWKHWIQTKDGQCGSPLVSTRDGFIVGIHSASNFTNTNNYFTSVLKNFMELLTNQEAQQWVSGWRLNADSVLWGGHKVFMVKPEEPFQPVKEATQL [P184L]		0.0631	0.0677	0.0509		0.05
